This passage reports binding results from PMC6005513.

Substitutions are numbered along the chain they refer to. These are yes or no findings as the source states them, for the method shown. Some results given as binding are weak or reduced against the parent protein; the word gives no strength.

Holding throughout (assay): binding of fluorescently labelled peptide to transfected cells, plate fluorescence scan; 10 nM myr-preS1-Al633 peptide in DMEM, 20 min, 37°C, on NTCP/Ntcp-transfected HEK293 cells in 24-well plates; washed with DMEM 2 min at 37°C; plates scanned at room temperature (Typhoon FLA 7000, 633 nm), total signal per area; only the binder purified
The target of assay [1] is T1, Callithrix jacchus (common marmoset) Ntcp G158R (Callithrix jacchus) (UniProt F7HA36).
T1 sequence: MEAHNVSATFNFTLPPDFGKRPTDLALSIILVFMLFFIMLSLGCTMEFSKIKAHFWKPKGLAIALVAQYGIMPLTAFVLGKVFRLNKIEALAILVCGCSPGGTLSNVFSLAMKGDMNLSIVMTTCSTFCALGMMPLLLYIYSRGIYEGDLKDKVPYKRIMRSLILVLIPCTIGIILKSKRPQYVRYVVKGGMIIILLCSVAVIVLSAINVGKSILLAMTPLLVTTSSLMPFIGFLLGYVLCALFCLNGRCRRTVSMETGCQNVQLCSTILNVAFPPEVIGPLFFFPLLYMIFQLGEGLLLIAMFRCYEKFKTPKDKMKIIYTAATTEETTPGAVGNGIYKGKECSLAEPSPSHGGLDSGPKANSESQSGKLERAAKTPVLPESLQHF

The target in assay [2] is T2, Macaca mulatta (rhesus macaque) Ntcp, wild type (Macaca mulatta).
T2 sequence: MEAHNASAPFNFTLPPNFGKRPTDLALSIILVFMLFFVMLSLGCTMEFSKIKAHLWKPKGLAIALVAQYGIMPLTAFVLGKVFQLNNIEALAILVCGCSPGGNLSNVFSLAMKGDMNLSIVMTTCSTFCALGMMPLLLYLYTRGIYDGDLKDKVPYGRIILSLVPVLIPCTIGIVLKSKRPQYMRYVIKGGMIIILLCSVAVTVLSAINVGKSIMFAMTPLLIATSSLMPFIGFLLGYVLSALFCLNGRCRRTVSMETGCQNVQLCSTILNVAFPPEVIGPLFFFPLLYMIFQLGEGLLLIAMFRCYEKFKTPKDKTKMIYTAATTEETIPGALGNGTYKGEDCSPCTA

Assay [3] addresses T3, Macaca silenus (lion-tailed macaque) Ntcp R158G (Macaca silenus).
T3 sequence: T2 sequence with R158G

Assay [4] addresses Papio hamadryas (hamadryas baboon) Ntcp, wild type (Papio hamadryas).
For assay [5], the target named is T4, Saguinus oedipus (cotton-top tamarin) Ntcp S158G (Saguinus oedipus).
T4 sequence: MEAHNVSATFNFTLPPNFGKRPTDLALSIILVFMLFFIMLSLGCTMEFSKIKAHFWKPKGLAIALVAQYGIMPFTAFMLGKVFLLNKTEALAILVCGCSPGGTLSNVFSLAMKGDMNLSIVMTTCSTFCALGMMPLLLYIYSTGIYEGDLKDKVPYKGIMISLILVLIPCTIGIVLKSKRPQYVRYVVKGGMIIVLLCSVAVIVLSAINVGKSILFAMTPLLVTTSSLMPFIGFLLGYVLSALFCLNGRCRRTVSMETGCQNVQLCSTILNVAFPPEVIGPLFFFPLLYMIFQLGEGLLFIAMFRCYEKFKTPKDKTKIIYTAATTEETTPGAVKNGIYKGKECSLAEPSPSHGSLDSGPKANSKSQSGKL

The target of another assay is T5, human NTCP G158R (human) (UniProt Q14973).
T5 sequence: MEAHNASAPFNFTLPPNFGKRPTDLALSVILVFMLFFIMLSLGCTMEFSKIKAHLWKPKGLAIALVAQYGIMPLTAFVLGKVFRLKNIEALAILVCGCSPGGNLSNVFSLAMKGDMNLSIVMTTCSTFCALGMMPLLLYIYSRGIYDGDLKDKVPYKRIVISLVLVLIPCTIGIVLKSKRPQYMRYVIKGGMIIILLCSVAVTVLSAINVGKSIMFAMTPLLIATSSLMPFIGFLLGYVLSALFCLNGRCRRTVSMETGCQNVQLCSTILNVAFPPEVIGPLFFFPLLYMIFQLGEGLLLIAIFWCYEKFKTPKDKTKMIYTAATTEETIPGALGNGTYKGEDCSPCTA

Assay [6] concerns the target orangutan (Pongo abelii) Ntcp, wild type (orangutan (Pongo abelii)) (UniProt Q14973).

Turning to “HBV myr-preS1-Al633-peptide (from UniProt P03138 2-48)”, the binding entry in assay [1] was “no binding (tested: 10 nM)”; in assay [2], “no binding (tested: 10 nM)”; in assay [3] it was “binds”; in assay [4] it was “no binding (tested: 10 nM)”; in assay [5], “binds”; in the assay with human NTCP G158R (human), “no binding (tested: 10 nM)”. Further, in assay [6], the binding result is given as “binds”.
